For 94 molecules, inhibition results are on record in PubChem BioAssay AID485344 (National Center for Advancing Translational Sciences (NCATS), 2010).

Hit rate of the full screen: of about 340,000 compounds, about 6,900 (2%) were called active. Rule as the data show it: active = inhibition above about 30%; inactive = below that, where a call was filed. Only a part is listed here, and it is no random draw. Where no call is shown, the source filed none.

Chain of UniProt P14416 (P14416 whole entry, looked up): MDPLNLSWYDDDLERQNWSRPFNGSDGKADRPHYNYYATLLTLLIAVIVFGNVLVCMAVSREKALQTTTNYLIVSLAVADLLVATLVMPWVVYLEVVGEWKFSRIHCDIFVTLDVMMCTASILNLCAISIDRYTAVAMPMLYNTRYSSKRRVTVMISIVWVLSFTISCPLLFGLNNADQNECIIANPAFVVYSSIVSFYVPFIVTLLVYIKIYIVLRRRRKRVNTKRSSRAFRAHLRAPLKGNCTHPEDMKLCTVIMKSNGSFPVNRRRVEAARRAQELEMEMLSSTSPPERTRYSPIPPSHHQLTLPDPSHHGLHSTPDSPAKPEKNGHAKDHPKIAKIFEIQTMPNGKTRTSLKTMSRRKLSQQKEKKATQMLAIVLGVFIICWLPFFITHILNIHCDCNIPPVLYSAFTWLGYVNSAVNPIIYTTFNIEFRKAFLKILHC

The target in the experiment is D(2) dopamine receptor (Homo sapiens) (UniProt P14416). In words: HTS Assay for Allosteric Antagonists of the Human D2 Dopamine Receptor: Primary Screen for Antagonists. Also: 0% is about no effect. As to conditions: HEK293 TREx D2 cells, calcium flux, dopamine EC80; at 10 µM; stronger effect = higher value. The method in brief:
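Calcium flux kinetic readout in an inducible HEK293 TREx D2 line plated overnight at 30 C. After 180 s compound exposure, an EC80 dopamine challenge follows with another 180 s kinetic read to detect antagonism.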
For orientation: inhibition means the relative decrease from the control value, in per cent. Turning to `Cc1ccc(-n2c(=O)c3c(cnn3C)n(CC(=O)Nc3cc(C)ccc3C)c2=O)cc1`, the inhibition came out at 6.58%.

Turning to `O=C(CCSCc1cnn(-c2ccccc2)c1-n1cccc1)NCc1ccc(Cl)cc1`, the inhibition is -5.67%.

Regarding `Cc1ccc(C(=O)c2cn(Cc3cccc(F)c3)c3nc(C)ccc3c2=O)cc1`, the inhibition worked out at 2.77%.

Regarding `COc1ccc(C(=O)NCc2ccc3c(c2)CCN3C(=O)c2cccc(C)c2)cc1OC`, the inhibition came to 5.3%.

As for `Cc1oc2ncnc(N3CCOCC3)c2c1C(=O)NCc1ccccc1`, the inhibition was -0.905%.

For `O=C(CCn1cccn1)Nc1cccc(C(F)(F)F)c1`, the inhibition came out at 13%.

On to `COc1ccc(/C=C\c2onc(C)c2S(=O)(=O)N2CCC(C(=O)Nc3ccc(Cl)cc3)CC2)cc1`, for which the inhibition stood at 4.58%.

With `CCOc1cc(-c2nnc(SCC(=O)NCc3ccccc3)nc2-c2ccc(OC)c(OCC)c2)ccc1OC`, the inhibition amounted to 15.8%.

Turning to `CCc1ccc(NC(=O)C2CCCN(S(=O)(=O)c3ccc4c(c3)CCCN4C(C)=O)C2)cc1` (centres undefined), the inhibition worked out at 5.39%.

`Cc1ccc(-n2ncc(C(=O)N3CCCCC3)c2C2CCN(C(=O)OC(C)(C)C)CC2)cc1C`: the inhibition was -5.04%.

Regarding `COc1ccc(C(=O)N2CC(=O)Nc3ccc(C)cc3C2c2ccccc2)c(OC)c1` (centres undefined), the inhibition amounted to 16.2%.

Turning to `CCC(=O)N1CCc2cc(Br)cc(S(=O)(=O)CCC(=O)N3CCN(c4ccccc4OC)CC3)c21`, the inhibition was determined as 14.5%.

Take `CCOC(=O)c1ccc(N2CCN(c3ccc(F)cc3)CC2)c(NC(=O)Nc2cccc(OC)c2)c1`: the inhibition stood at 12.9%.

For `COc1ccc(-c2ccnc3[nH]n(-c4ccccc4)c(=O)c23)cc1`, the inhibition was -14.4%.

In the case of `COc1ccccc1N1CCN(S(=O)(=O)c2ccc3[nH]c4c(c3c2)CCCC4)CC1`, the inhibition is -21.4%.

For `Cc1cc2nc(N)sc2cc1C`, the inhibition is active: 34.2%.

In the case of `COc1ccc(OCc2ccc(-c3nc(C#N)c(N4CCC(C)CC4)o3)o2)cc1`, the inhibition turned out to be 10.8%.

Turning to `O=c1oc(-c2ccco2)nc2ccccc12`, the inhibition is active: 36.3%.

As to `COc1ccc(-c2cc3c(=O)n(CC(=O)NCCCN4CCN(Cc5ccccc5)CC4)ncn3n2)cc1`, the inhibition is active: 37.1%.

Regarding `C=C(C)Cn1c(SCC(=O)Nc2cc(C)ccc2C)nc2sc3c(c2c1=O)CCCC3`, the inhibition is -17.3%.

For `Cc1ccc(NC(=O)c2ccc3snnc3c2)cc1Cl`, the inhibition was found to be 15.9%.

As to `CCc1ccc(S(=O)(=O)c2nnn(-c3ccc(F)cc3)c2N)cc1`, the inhibition was determined as 8.48%.

With `CN(C)S(=O)(=O)Nc1ccc(Oc2ccccc2)cc1`, the inhibition was active: 34.6%.

Regarding `Cc1cccc(OCC(=O)NCC2(N3CCN(C)CC3)CCCCC2)c1C`, the inhibition is -1.95%.

In the case of `CCOc1ccc(CCNC(=O)c2cn(C)c3ccc(S(=O)(=O)N4CCOCC4)cc3c2=O)cc1OCC`, the inhibition was -3.53%.

`Cc1cc(Cl)ccc1Oc1ncc(CN2CCN(c3ccccc3)CC2)s1`: the inhibition is active: 83.6%.

Consider `Cc1ccc(-n2ncc3c(N(C)Cc4ccccc4)ncnc32)cc1`, for which the inhibition turned out to be 12.2%.

Turning to `Cc1cc(NS(=O)(=O)c2ccc(NC(=O)c3ccccc3F)cc2)nc(C)n1`, the inhibition turned out to be 17.5%.

For `Cc1ccc(NS(=O)(=O)c2ccc(C)c(NC(=O)COc3ccccc3)c2)c(C)c1`, the inhibition is active: 66.6%.

As to `Cc1ccccc1NC(=O)C1CCC(CNS(=O)(=O)c2ccc3c(c2)C(C)(C)C(=O)N3C)CC1` (centres undefined), the inhibition was -4.34%.

For the molecule `COC(=O)c1cc2c(cc1NC(=O)c1c(C)nn(-c3ccc(C)cc3)c1-n1cccc1)OCO2`, the inhibition is -6.99%.

Take `COc1cc(NC(=O)Cn2ccn(Cc3ccccc3OC)c(=O)c2=O)cc(OC)c1`: the inhibition was -3.06%.

Turning to `CCOC(=O)c1c(S(=O)(=O)N2CCCC(C(=O)N(C)Cc3ccccc3)C2)c(C)n(C)c1C` (centres undefined), the inhibition was -3.2%.

Consider `O=C(CN1CCN(Cc2ccc(F)cc2Cl)S1(=O)=O)Nc1ccc(F)cc1`, for which the inhibition worked out at 0.0041%.

As for `Cc1ccc(C(c2sc3nc(-c4ccco4)nn3c2O)N2CCOCC2)cc1` (centres undefined), the inhibition is 7.31%.

In the case of `COc1ccccc1NC(=O)CSc1nc2ccccc2c(=O)n1CCC(=O)NC1CCCCC1`, the inhibition was -8.54%.

On to `Cc1cccc(-n2c(-c3ccco3)nc3c(cnn3-c3ccccc3C)c2=O)c1`, for which the inhibition is -14.4%.

For `Cc1nn(C(=O)c2ccccc2)c(C)c1Sc1ccc(Cl)cc1`, the inhibition came to 1.53%.

On to `Cc1ccc(Cn2nc(C)c(NC(=O)c3cc(-c4ccc(F)cc4)on3)c2C)cc1`, for which the inhibition amounted to 1.09%.

In the case of `Cc1ccc(NC(=O)Cn2c(C)cc(C)c(C#N)c2=O)cc1`, the inhibition is 10.6%.

In the case of `CCOc1ccc(NC(=O)Cn2c(=O)oc3cc(S(=O)(=O)NC4CCCC4)ccc32)cc1`, the inhibition worked out at 6.03%.

On to `Cc1cccc(Cn2c(C)c(C)c3cc(C(=O)NCc4ccco4)ccc32)c1`, for which the inhibition came to 11.8%.

On to `COc1ccc(S(=O)(=O)NCCc2csc3nc(-c4ccc(Cl)cc4)nn23)cc1C`, for which the inhibition was found to be 27.9%.

For the molecule `CS(=O)(=O)N1CCc2cc(S(=O)(=O)NCc3ccccc3Cl)ccc21`, the inhibition was determined as 27.4%.

For the molecule `COc1ccc2[nH]c(=O)c(CN(C(=O)c3cccc(Cl)c3)c3ccccc3OC)cc2c1`, the inhibition was 8.47%.

As for `Cn1c2ccccc2c2cnn(CC(=O)NCc3ccc(Cl)cc3)c(=O)c21`, the inhibition worked out at 2.71%.

On to `CC(=O)Nc1ccccc1OCc1cc(=O)n2c3c(sc2n1)CCCC3`, for which the inhibition is -0.553%.

On to `COc1ccc(-c2nc(Cn3c(SCc4cccc(Cl)c4)nc4ccncc43)c(C)o2)cc1`, for which the inhibition was -13%.

Take `Cc1ccc(Sc2c(C)nn(C(=O)COc3ccccc3)c2C)cc1`: the inhibition was -7.69%.

As to `Cn1cnc(S(=O)(=O)N2CCC(C(=O)NCc3ccccc3)CC2)c1`, the inhibition came to 15.4%.

As for `O=C1CS(=O)(=O)C2(C(=O)Nc3ccccc32)N1c1cccc(Cl)c1` (centres undefined), the inhibition came out at 5.69%.

`COc1cccc2c1cc1c(=O)n(CC(=O)N3CCN(c4ccccc4F)CC3)nc(C)n12`: the inhibition came to 1.26%.

For `CCOc1ccc(NC(=O)CCCc2nc(-c3cccc(OC)c3)no2)cc1`, the inhibition was 17.1%.

As to `Cc1ccc(C)c(CSc2nc3c([nH]c4ccccc43)c(=O)n2C)c1`, the inhibition worked out at 11.9%.

As for `O=C(NCCCc1nc2ccccc2n1Cc1ccc(F)cc1)C1CCCCC1`, the inhibition was determined as 2.91%.

For `CC(C)c1ccc2oc(-c3ccc(Cl)c(NC(=O)c4cccs4)c3)nc2c1`, the inhibition was -7.87%.

Turning to `COc1ccc(CN2CCN(Cc3cn(C)nc3-c3ccccc3)CC2CCO)c(C)c1C` (centres undefined), the inhibition was active: 33.2%.

Regarding `Cn1nc(-c2ccc(OCC(=O)Nc3cccc(C(F)(F)F)c3)cc2)c2ccccc2c1=O`, the inhibition is -6.88%.

`Cc1ccc(C(=O)Nc2ccc(F)cc2)cc1S(=O)(=O)N1CCCCCC1`: the inhibition was -25.2%.

On to `COc1ccc(NC(=O)c2cc(S(=O)(=O)N3CCOCC3)cn2C)cc1Cl`, for which the inhibition stood at 14.8%.

Take `CC(C)(C)C(=O)Nc1cc(-c2cccc(Br)c2)nn1-c1ccccc1`: the inhibition is 2.1%.

Regarding `CC(=O)Oc1ccccc1C(=O)Nc1ncc([N+](=O)[O-])s1`, the inhibition was active: 35%.

Regarding `CCOC(=O)c1ccc(NC(=O)CSc2nc3ncc(Br)c(C)c3[nH]2)cc1`, the inhibition is 4.39%.

Turning to `COCCCNC(=O)c1ccc(Cn2c(=O)c3ccccc3n(CC(N)=O)c2=O)cc1`, the inhibition is -4.72%.

With `CCC(=O)N1c2ccccc2CC1C(=O)NCCCN1CCN(c2cc(C)ccc2C)CC1` (centres undefined), the inhibition is -6.52%.

For `COc1ccc(-c2cc3nc(N)cc(=O)n3[nH]2)cc1`, the inhibition is 0.311%.

For `CCN(C(=O)c1ccc2c(c1)N(Cc1cccc(Cl)c1)C(=O)c1ccccc1S2=O)c1ccccc1` (centres undefined), the inhibition came out at 18.2%.

`Cc1cc(C)c(NC(=O)Cn2c(=O)n(-c3cccc(C(F)(F)F)c3)c(=O)c3c(C)c(C)sc32)c(C)c1`: the inhibition turned out to be 10.1%.

For the molecule `O=C(O)c1ccc(Nc2nc3ccccc3c3nncn23)cc1`, the inhibition was 8.78%.

Regarding `COc1ccccc1NC(=O)C(Cc1ccccc1)NS(=O)(=O)c1ccc2c(c1)CCN2C(C)=O` (centres undefined), the inhibition amounted to 6.59%.

In the case of `CC(=O)N1CCOc2cc(S(=O)(=O)NCc3ccccc3Cl)c(C)cc21`, the inhibition was -5.91%.

As for `CCc1ccccc1Nc1nn2c(=O)c3ccc(C(=O)NCc4ccc(C)cc4)cc3nc2s1`, the inhibition is -1.49%.

As to `Cc1ccc(NC(=O)c2noc(C(C)C)c2[N+](=O)[O-])cc1`, the inhibition was active: 50.8%.

On to `CC(=O)N1CCc2c(sc3c2c(=O)n(-c2ccccc2)c(=O)n3CC(=O)c2ccc(Cl)cc2)C1`, for which the inhibition was -5.07%.

Regarding `O=C(NCc1cccc(F)c1)C1CCN(c2nc3ccccc3nc2C(F)(F)F)CC1`, the inhibition came to 1.43%.

On to `O=C(NCCN1CCOCC1)c1cccc(NS(=O)(=O)c2ccc(Br)cc2)c1`, for which the inhibition was active: 33.1%.

For the molecule `COCCNC(=O)CCn1c(=O)c2cc(OC)c(OC)cc2n(CC(=O)Nc2ccc(F)c(Cl)c2)c1=O`, the inhibition came out at 8.94%.

As for `O=C(Nc1ccc(Cl)cc1Cl)c1cc(S(=O)(=O)N2CCC3(CC2)OCCO3)ccc1F`, the inhibition was 14.8%.

For `CCN(CCCNC(=O)CSc1cc(=O)n(C)c2ccccc12)c1ccccc1`, the inhibition is 2.93%.

Consider `CCOc1cccc(NC(=O)C2CC(=O)N(C)C(=Nc3cccc(OC)c3)S2)c1` (centres undefined), for which the inhibition turned out to be 1.12%.

With `Cc1cc(C)c(NC(=O)C(C)n2c(=O)cc(C)c3c(C)nn(-c4ccccc4)c32)c(C)c1` (centres undefined), the inhibition was -12.5%.

For the molecule `Cc1[nH]c2ccccc2c1CCNS(=O)(=O)c1ccc(S(N)(=O)=O)cc1`, the inhibition is active: 54.8%.

Regarding `COc1ccc([N+](=O)[O-])cc1NC(=O)C(C)c1ccccc1` (centres undefined), the inhibition was active: 32.2%.

On to `O=C(NC1CCCCCC1)C1CCN(C(=O)N2CCOc3ccc(Cl)cc32)CC1`, for which the inhibition was 8.1%.

For the molecule `Cc1ccc(S(=O)(=O)N2[C@@H](c3ccc(Cl)cc3)C(C(=O)O)=CC[C@H]2c2ccc(C(C)C)cc2)cc1`, the inhibition was active: 38.9%.

As for `Cc1ccc(C2=NN(CC(=O)NCCCN(CC(C)C)CC(C)C)C(=O)CC2)cc1`, the inhibition was -24.1%.

Take `CCCCc1nn2c(=O)cc(COC(=O)c3cccc(NC(=O)COc4ccccc4)c3)nc2s1`: the inhibition is -13.7%.

As for `CCOCCCNC(=O)c1ccc2c(c1)NC(=O)C(CS(=O)(=O)Cc1ccc(F)cc1Cl)N2` (centres undefined), the inhibition was -4.49%.

Take `Cc1cc2[nH]c(=O)c(=O)[nH]c2cc1S(=O)(=O)NCc1ccc(F)cc1`: the inhibition came out at 10.1%.

Take `Cc1cc(C)n(-c2nc3ccccc3nc2Nc2ccc(C(C)C)cc2)n1`: the inhibition was -3.44%.

For `CCOC(=O)Cc1ccc(NC(=O)Nc2ccccc2OCc2cc(=O)n3ccccc3n2)cc1`, the inhibition came to 19.8%.

Turning to `O=C(NCc1ccc2c(c1)CCN2C(=O)c1ccccc1)Nc1cc(F)ccc1F`, the inhibition is -10.4%.

With `COc1ccccc1-n1c(=O)c2c3c(sc2n(C)c1=O)CN(C(C)=O)CC3`, the inhibition was -8.86%.

As to `COc1ccc(Cn2c(CNS(=O)(=O)c3ccc(C)c(C)c3)nc3cccnc32)cc1`, the inhibition is 16.9%.
